# Among all 310,000 compounds or so, about 14,000 (4.5%) showed an effect of 50% or more. Effects have a minus sign here. This is one part of the list.
# Target: human ether-à-go-go-related gene (hERG) potassium channel (human, UniProt Q12809)
# Test: primary screen, population patch clamp on CHO cells stably expressing hERG
# 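Further: peak tail current of the secondary pulse compared with the same well before compound.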
# Sequence of human ether-à-go-go-related gene (hERG) potassium channel (Q12809 whole entry, looked up): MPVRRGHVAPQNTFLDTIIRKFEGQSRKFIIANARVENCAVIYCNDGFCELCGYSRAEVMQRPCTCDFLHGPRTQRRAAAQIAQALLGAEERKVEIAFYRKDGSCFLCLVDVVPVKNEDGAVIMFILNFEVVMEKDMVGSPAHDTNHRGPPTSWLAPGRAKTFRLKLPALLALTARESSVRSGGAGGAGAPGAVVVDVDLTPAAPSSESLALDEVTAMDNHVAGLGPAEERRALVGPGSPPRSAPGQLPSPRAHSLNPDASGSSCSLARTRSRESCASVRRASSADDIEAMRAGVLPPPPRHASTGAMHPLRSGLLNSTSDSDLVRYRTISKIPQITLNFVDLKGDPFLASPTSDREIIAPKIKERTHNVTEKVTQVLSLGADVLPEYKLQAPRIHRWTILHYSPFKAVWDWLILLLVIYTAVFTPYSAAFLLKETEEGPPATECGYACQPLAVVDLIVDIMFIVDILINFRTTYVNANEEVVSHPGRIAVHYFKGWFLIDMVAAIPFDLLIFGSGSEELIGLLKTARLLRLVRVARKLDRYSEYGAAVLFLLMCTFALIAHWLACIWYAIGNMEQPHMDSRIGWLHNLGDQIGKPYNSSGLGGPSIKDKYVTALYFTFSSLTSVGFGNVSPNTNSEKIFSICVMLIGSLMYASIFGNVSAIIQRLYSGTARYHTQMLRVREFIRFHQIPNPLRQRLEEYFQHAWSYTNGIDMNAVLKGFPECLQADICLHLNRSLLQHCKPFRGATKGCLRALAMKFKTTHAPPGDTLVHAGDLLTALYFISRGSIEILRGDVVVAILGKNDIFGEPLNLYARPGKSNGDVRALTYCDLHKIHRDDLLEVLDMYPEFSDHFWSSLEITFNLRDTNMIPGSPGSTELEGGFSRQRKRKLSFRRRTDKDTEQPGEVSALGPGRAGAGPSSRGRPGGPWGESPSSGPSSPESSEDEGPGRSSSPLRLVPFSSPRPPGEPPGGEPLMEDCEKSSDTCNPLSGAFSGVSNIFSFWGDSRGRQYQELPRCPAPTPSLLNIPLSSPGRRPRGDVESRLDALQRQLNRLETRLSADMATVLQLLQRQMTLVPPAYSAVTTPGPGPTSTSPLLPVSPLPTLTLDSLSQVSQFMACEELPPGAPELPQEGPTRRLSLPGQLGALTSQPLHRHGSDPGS
row,Compound,"hERG current change (%, negative = inhibition) at 10uM"
1,O=[N+]([O-])c1cccc(/C=N/Nc2nc(N3CCCCC3)nc(N3CCCCC3)n2)c1,-9.67%
2,CCCOc1c(Br)cc(/C=N/O)cc1OC,1.68%
3,Oc1[nH]c2ccccc2c1C1=NCCCCC1,2.73%
4,Nc1nc(Nc2cccc(C(F)(F)F)c2)nc(C(F)(F)F)n1,-14.1%
5,COc1ccc(CCNC(=O)c2n[nH]c(=O)c3ccccc23)cc1,22%
6,CNS(=O)(=O)c1ccc(NC(=O)C2CC(=O)N(c3ccc(Cl)cc3)C2)cc1 (centres unmarked),8.44%
7,O=C1NC(O)(c2ccccc2)Oc2ccccc21 (centres unmarked),16%
8,CCOc1ccc(CNC(=O)CCS(=O)(=O)Cc2cccc(Cl)c2)cc1OC,-12.1%
9,COc1ccc(CNC(=O)Nc2ccc(C)cc2)cc1,8.62%
10,COc1ccc2[nH]c(CN3CCN(CC=C(C)C)C(CCO)C3)c(C)c2c1 (centres unmarked),-17.1%
11,CCCC(C(=O)n1nc(C)cc1C)C(NS(=O)(=O)c1ccc(C)cc1)c1ccccc1 (centres unmarked),8.29%
12,CCC1(C(=O)OC)NC(c2ccccc2OC)C2C(=O)N(C)C(=O)C21 (centres unmarked),19.1%
13,S=C(NCc1ccco1)N1CCN(Cc2ccc(Cl)cc2Cl)CC1,-36.3%
14,O=C(c1cnsn1)N1CCN(c2ccccc2)CC1,-1.86%
15,Cc1ccccc1NC(=O)NC1CCS(=O)(=O)C1 (centres unmarked),16.6%
16,O=C1CC(Cc2ccc(Cl)cc2)C(=O)N1c1ccccn1 (centres unmarked),1.83%
17,CCOC(=O)C1CCN(Cc2ccc(OC)c(C)c2OC)CC1,-25.2%
18,Cn1c(=O)cc(SCC(=O)Nc2ccccn2)c2ccccc21,-2.45%
19,Cc1cc2ccccn2c1C(=O)c1ccccc1F,5.93%
20,CCOc1ccccc1NC(=O)CC1Nc2ccccc2NC1=O (centres unmarked),-1.88%
21,Cc1c(NC(=O)C(=O)/C=C(\O)c2ccc(Cl)cc2)c(=O)n(-c2ccccc2)n1C,-1.52%
22,CCN(CC)P(=O)(NC(=O)c1cccn1C)N(CC)CC,4.72%

row,Compound,"hERG current change (%, negative = inhibition) at 10uM"
1,CCOC(=O)c1c(C)n(C)c2ccc(O)c(S(=O)(=O)c3ccccc3)c12,-13.9%
2,O=C(N/N=C/C(Cl)=C/c1ccc([N+](=O)[O-])cc1)C(=O)Nc1ccc(C(=O)O)cc1,12.2%
3,CC(C)CC(C(=O)OCC(=O)Nc1cccc(Cl)c1)N1C(=O)C2CC=CCC2C1=O (centres unmarked),7.75%
4,c1cnc(SCCOc2cccc3ccccc23)nc1,-8.05%
5,O=C(NCC1CCCO1)c1onc(CSc2ccc(F)cc2)c1C(=O)O (centres unmarked),1.83%
6,Cc1ccc(C(=O)N/C(=C\c2ccc(-c3cccc([N+](=O)[O-])c3)o2)C(=O)NCCCN(C)C)cc1,-67.6%
7,Cc1ccc(-c2cnc3cc(C)nn3c2)cc1,7.09%
8,CCC(CC)CN1CCN=C1Nc1ccccc1,-6.05%
9,Cc1ccc(S(=O)(=O)Nc2nc3ccccc3nc2NCc2ccc3c(c2)OCO3)cc1C,0.353%
10,CC(=O)N1CCSc2ccc(S(=O)(=O)NCc3ccccc3)cc21,-2.74%
11,COc1ccc(S(=O)(=O)N2CCCC2CNC(=O)C(=O)NC2CC2)cc1 (centres unmarked),4.37%
12,CCOc1ccc(S(=O)(=O)NCCC(=O)NCC2(N3CCCCC3)CCCCC2)cc1,-33.2%
13,N=C1C(c2nc3ccccc3[nH]2)=C(O)CN1C1CCCCC1,6.22%
14,O=C(NC1CCCCC1)n1c(=O)oc2cc(S(=O)(=O)N3CCCCC3)ccc21,2.1%
15,CC(=O)N1CCN(C(=O)C(Cc2ccccc2)NC(=O)c2ccccc2)CC1 (centres unmarked),1.89%
16,CC(=O)c1cccc(NC(=O)c2ccc3c(Cl)c4c(nc3c2)CCCC4)c1,-9.9%
17,O=C(CCn1cnc2ccccc21)N/N=C/C=C/c1ccccc1,-41.5%
18,Brc1ccccc1OCCNCc1ccccc1.O=C(O)C(=O)O,-29.8%
19,Cc1nn(C)c(C(=O)N/N=C/c2ccc(C(F)(F)F)cc2)c1[N+](=O)[O-],-1.99%
20,NS(=O)(=O)c1ccc(CCNC(=O)Cc2ccc(S(=O)(=O)N3CCOCC3)s2)cc1,8.51%
21,CCN(C(=O)/C=C/c1ccccc1)C1CCCCC1,11.2%
22,COc1ccc(N(CC(=O)NC(C)(C)C)C(=O)CCC(=O)Nc2nccs2)c(OC)c1,18.7%
